Values marked as one replicate rest on one cluster of the flow cell; about a third of the high ones do not repeat.
Tested on: ATP
Assay: switch fluorescence ratio, 500 uM ATP over buffer (Cy3 cluster intensity, sum of 5 cycles each) (fold (ratio)); higher = stronger signal-on switching upon ATP binding; sequences stand for … in TCGTCGGCAGCGTCAGATGTGTATAAGAGACAGTTTTTTTTTTTTTTTTTTTTTTTTT…TC
Details: aptamer strand: ATP DNA aptamer (quencher-CACCTGGGGGAGTATTGCGGAGGAAGG + anchor), 100 nM annealed; ATP concentration: 500 uM; one replicate
In short: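 For every switch-domain sequence, the fluorescence ratio is the mean of per-cluster values, each being summed target-cycle Cy3 intensity over summed buffer-cycle Cy3 intensity. Clusters outside 100-1000 RFU were excluded. On a modified Illumina MiSeq flow-cell, the Cy3-labelled switching-strand clusters were annealed to 100 nM quencher-labelled ATP aptamer, imaged in selection buffer and then after 15 min with 500 uM ATP at 22 °C. Five such cycles were run, with NaOH stripping and re-annealing between them.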
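Further: ATP exposure 15 min at 22 °C before imaging.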

| Sequence | switch fluorescence ratio |
| --- | --- |
| CAGCGTCTCG | 1.01 |
| CAGCTAAAAC | 1.27 |
| CAGCTATTCG | 1.05 |
| CAGCTCACGA | 1.13 |
| CAGCTGAACC | 0.967 |
| CAGCTGGGCT | 0.978 |
| CAGCTTCGAA | 0.989 |
| CAGCTTGGTC | 1.02 |
| CAGCTTTGAC | 1.16 |
| CAGGAATTGT | 0.982 |
| CAGGACGTTC | 0.997 |
| CAGGACTGCT | 1 |
| CAGGATGGCA | 0.935 |
| CAGGCAGGAA | 0.98 |
| CAGGCCATGT | 0.966 |
| CAGGCCCTCT | 1.02 |
| CAGGCCTATA | 0.985 |
| CAGGCCTCGT | 1.01 |
| CAGGCCTGCC | 1.14 |
| CAGGCGGGC | 1.02 |
| CAGGCGTCC | 1.07 |
| CAGGCGTCGA | 1.14 |
| CAGGCTATGA | 1.03 |
| CAGGCTGGGG | 1.02 |
| CAGGCTTTCA | 1.03 |

| Sequence | switch fluorescence ratio |
| --- | --- |
| CAGGGCCCGT | 1.02 |
| CAGGGCCTCT | 0.99 |
| CAGGGCTAGC | 1.08 |
| CAGGGGGCCC | 0.995 |
| CAGGGTTGGA | 0.994 |
| CAGGTCGCTG | 0.994 |
| CAGGTGCCTA | 1.16 |
| CAGGTGGGAT | 1.14 |
| CAGGTGGTCT | 1.03 |
| CAGGTTAAG | 1.03 |
| CAGGTTATAC | 1.28 |
| CAGGTTCGTT | 0.988 |
| CAGGTTTGGG | 0.973 |
| CAGTAAAGGC | 0.983 |
| CAGTAACAGA | 1.03 |
| CAGTAAGGAT | 1.02 |
| CAGTAATTGG | 0.994 |
| CAGTACGAGG | 0.978 |
| CAGTAGCGCA | 1.17 |
| CAGTAGGAAG | 0.98 |
| CAGTATCAAT | 1.02 |
| CAGTCACTAT | 1.06 |
| CAGTCAGACG | 1.02 |
| CAGTCGACTC | 1 |
| CAGTCGATGT | 0.988 |

| Sequence | switch fluorescence ratio |
| --- | --- |
| CAGTCTAGTG | 1.02 |
| CAGTGAGAGT | 1.02 |
| CAGTGAGATC | 1.21 |
| CAGTGAGGAA | 1.02 |
| CAGTGCTGCG | 0.974 |
| CAGTGGGT | 1.02 |
| CAGTGGGTTC | 0.958 |
| CAGTGGGTTG | 0.983 |
| CAGTGTGGGT | 1 |
| CAGTTACAGT | 1.02 |
| CAGTTACCGT | 0.979 |
| CAGTTAGTAG | 1.01 |
| CAGTTATAAC | 0.989 |
| CAGTTCCGAG | 1.3 |
| CAGTTCGCTG | 0.99 |
| CAGTTGCGTT | 0.97 |
| CAGTTTGGCG | 0.973 |
| CAGTTTTGCA | 1.02 |
| CATAAATACA | 1.05 |
| CATAAGCAAC | 2.48 |
| CATAATAGCC | 1.06 |
| CATAATCAAT | 0.99 |
| CATAATCGAC | 1.09 |
| CATAATTAT | 0.985 |
| CATACACGTA | 1.17 |

| Sequence | switch fluorescence ratio |
| --- | --- |
| CATACATTTG | 0.988 |
| CATACCCGGC | 1.01 |
| CATACGAAAC | 1.29 |
| CATACGAGTA | 1.02 |
| CATACGTTCA | 1.03 |
| CATACGTTCG | 1.02 |
| CATACTCTAC | 1.31 |
| CATAGAGGTA | 1.01 |
| CATAGAGGTT | 0.962 |
| CATAGATTTC | 0.962 |
| CATAGGCA | 1.11 |
| CATAGGCGAT | 1.1 |
| CATAGGGGTC | 0.944 |
| CATAGGGTCA | 0.966 |
| CATAGTACTT | 1.04 |
| CATAGTGGTC | 0.96 |
| CATATAAATG | 1.02 |
| CATATATGTT | 0.996 |
| CATATCAATG | 1.01 |
| CATATCCCAA | 1.05 |
| CATATCCTCT | 1.04 |
| CATATCTTGG | 1.02 |
| CATATTTTAA | 0.975 |
| CATCAATTTT | 1 |
| CATCAGCGCC | 1.4 |
